Test results: PubChem BioAssay AID330 (DTP/NCI, 2004)
Inconclusive results and toxic doses are left out. The source holds more than one record for some entries. Only these are listed. An entry can have further records. Values given together are repeated measurements (runs, samples, wells, individuals or studies).

System: P388 leukemia ip, CD2F1 mice, survival T/C
Assay: NCI In Vivo Anticancer Drug Screen. Data for tumor model P388 Leukemia (intraperitoneal) in CD2F1 (CDF1) mice
Details: endpoint: median survival time, higher = longer survival

CCCN1COC(OCC)C(C)(C)C1 (stereo unspecified)
T/C (dose: 50.0 mg/kg/injection, schedule: Q01DX009 (ip), vehicle: saline with Tween-80): 112 % of control and 154 % of control

CSC(=S)S(=O)(=O)C12CC3CC(CC(C3)C1)C2
T/C (dose: 12.5 mg/kg/injection, schedule: Q01DX009 (ip), vehicle: Klucel (hydroxypropylcellulose) (HPC)): 107 % of control, 111 % of control, 153 % of control

CN(C)c1ccc2c(NCCCCCCNc3ccnc4cc(N(C)C)ccc34)ccnc2c1
T/C (dose: 25.0 mg/kg/injection, schedule: Q01DX009 (ip), vehicle: distilled water + alcohol): 99 % of control, 177 % of control, 185 % of control

CCOc1ccc(C(C)c2cc3c(cc2OCC)OCO3)cc1 (stereo unspecified)
T/C (dose: 50.0 mg/kg/injection, schedule: Q01DX005 (ip), vehicle: saline with Tween-80): 107 % of control and 171 % of control

C/C=C/C=C/c1cc2cc3c(c(O)c2c(=O)[nH]1)C1(CC3)C(O)=c2c(=O)c3c(=O)cc(OC)c(=O)c=3c(=O)c2=C1O (stereo unspecified)
T/C (dose: 0.12 mg/kg/injection, schedule: Q01DX009 (ip), vehicle: DMSO): 98 % of control and 181 % of control

Nc1nc(N)c2nc(CNc3ccc(C(=O)NC(CC(=O)O)C(=O)O)cc3)cnc2n1 (stereo unspecified)
T/C (dose: 100.0 mg/kg/injection, schedule: Q04DX003 (ip), vehicle: saline with Tween-80): 116 % of control and 159 % of control

Nc1ncnc2c1ncn2[C@@H](C=O)O[C@@H](C=O)CO
T/C (dose: 12.5 mg/kg/injection, schedule: Q01DX009 (ip), vehicle: other): 86 % of control and 169 % of control

N=C(N)c1ccc(OCCCOc2ccc(C(=N)N)cc2Br)c(Br)c1
T/C (dose: 12.5 mg/kg/injection, schedule: Q01DX009 (ip), vehicle: saline): 118 % of control and 155 % of control

COc1ccc2cc3[n+](cc2c1O)CCc1cc2c(cc1-3)OCO2
T/C (dose: 100.0 mg/kg/injection, schedule: Q01DX005 (ip), vehicle: Klucel (hydroxypropylcellulose) (HPC)): 108 % of control, 152 % of control, 157 % of control

COc1cc([C@@H]2c3cc4c(cc3[C@@H](OC3OC5COC(C)OC5C(O)C3O)[C@H]3COC(=O)[C@H]23)OCO4)cc(OC)c1O (stereo partly specified)
T/C (dose: 18.0 mg/kg/injection, schedule: Q04DX003 (ip), vehicle: water): 113 % of control and 355 % of control

N#Cc1c(-c2ccc(F)cc2)c(-c2ccc(F)cc2)nn(CCO)c1=O
T/C (dose: 50.0 mg/kg/injection, schedule: Q04DX002 (ip), vehicle: distilled water + Tween-80): 111 % of control and 150 % of control
